# Test results: the supplement of paper PMC4967469
# A lower IC50 marks a more sensitive line; where the fit passes the top or lowest dose, that dose stands as a limit. The AUC spans the tested range (256-fold, ending at the top dose) of the same fit; the more sensitive the line, the further below 1. An inferred top dose was calculated from the reported fits.
# How the values were obtained:
# Experiment in all cases: Viability of human cancer cell lines after 72 h of drug (GDSC screen)
# EHT 1864 = compound: O=c1cc(CN2CCOCC2)occ1OCCCCCSc1ccnc2cc(C(F)(F)F)ccc12 [EHT 1864]; conditions: top dose 10 µM; top dose inferred
# Experimental: (§1)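 Human cancer cell lines in 384-well plates, medium with 10% serum, drug for 72 h over a 256-fold dose range (nine 2-fold or five 4-fold steps up to the top dose). Adherent lines were fixed and stained with the nucleic acid dye Syto60, suspension lines read with resazurin; signal relative to control wells, capped at 0 and 100%. One two-parameter sigmoid per drug and line, fitted in a mixed model over all curves with the slope shared within a line.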
# WHI-P97 = compound: COc1cc2ncnc(Nc3cc(Br)c(O)c(Br)c3)c2cc1OC [WHI-P97]; conditions: top dose 10.24 µM; top dose inferred
# Experimental: as §1
# XL-184 = compound: COc1cc2nccc(Oc3ccc(NC(=O)C4(C(=O)Nc5ccc(F)cc5)CC4)cc3)c2cc1OC [XL-184]; conditions: top dose 5.12 µM; top dose inferred
# Experimental: as §1
# QL-XI-92 = compound: C=CC(=O)Nc1cc(NC(=O)c2ccc(C)c(NC(=O)c3ccno3)c2)cc(C(F)(F)F)c1 [QL-XI-92]; conditions: top dose 10.24 µM; top dose inferred
# Experimental: as §1
# Phenformin = compound: N=C(N)NC(=N)NCCc1ccccc1 [Phenformin]; conditions: top dose 4000 µM; top dose inferred
# Experimental: as §1
# AG-014699 = compound: CNCc1ccc(-c2[nH]c3cc(F)cc4c3c2CCNC4=O)cc1 [AG-014699]; conditions: top dose 5 µM; top dose inferred
# Experimental: as §1
# NU-7441 = compound: O=c1cc(N2CCOCC2)oc2c(-c3cccc4c3sc3ccccc34)cccc12 [NU-7441]; conditions: top dose 2 µM; top dose inferred
# Experimental: as §1
# Vinorelbine = compound: CCC1=C[C@@H]2CN(C1)Cc1c([nH]c3ccccc13)[C@@](C(=O)OC)(c1cc3c(cc1OC)N(C)[C@H]1[C@@](O)(C(=O)OC)[C@H](OC(C)=O)[C@]4(CC)C=CCN5CC[C@]31[C@@H]54)C2 [Vinorelbine]; conditions: top dose 0.064 µM; top dose inferred
# Experimental: as §1
Cell Line,AUC (EHT 1864),IC50 (EHT 1864),AUC (WHI-P97),IC50 (WHI-P97),AUC (XL-184),IC50 (XL-184),AUC (QL-XI-92),IC50 (QL-XI-92),AUC (Phenformin),IC50 (Phenformin),AUC (AG-014699),IC50 (AG-014699),AUC (NU-7441),IC50 (NU-7441),AUC (Vinorelbine),IC50 (Vinorelbine)
"A427 (non-small cell lung carcinoma, adherent)",0.935,> 10 µM,0.97,> 10.2 µM,0.944,> 5.12 µM,0.961,> 10.2 µM,0.612,510 µM,0.935,> 5 µM,0.952,> 2 µM,–,–
"A549 (lung adenocarcinoma, adherent)",0.91,> 10 µM,–,–,–,–,–,–,–,–,0.958,> 5 µM,0.839,1.62 µM,–,–
"CHP-134 (neuroblastoma, suspension)",–,–,0.961,> 10.2 µM,0.898,> 5.12 µM,0.904,> 10.2 µM,0.98,> 4000 µM,–,–,0.882,> 2 µM,–,–
"Calu-3 (lung adenocarcinoma, adherent)",0.96,> 10 µM,0.975,> 10.2 µM,0.909,> 5.12 µM,0.983,> 10.2 µM,0.923,> 4000 µM,0.925,> 5 µM,0.973,> 2 µM,–,–
"HCC202 (breast, adherent)",0.956,> 10 µM,0.927,> 10.2 µM,0.976,> 5.12 µM,–,–,0.383,105 µM,0.981,> 5 µM,0.95,> 2 µM,–,–
"HCC-827 (lung adenocarcinoma, adherent)",0.944,> 10 µM,0.769,4.45 µM,0.962,> 5.12 µM,0.973,> 10.2 µM,–,–,0.954,> 5 µM,0.898,> 2 µM,–,–
"HCT-116 (large intestine, adherent)",0.957,> 10 µM,0.982,> 10.2 µM,–,–,0.919,> 10.2 µM,–,–,0.903,> 5 µM,0.987,> 2 µM,–,–
"IGROV-1 (ovary, adherent)",0.962,> 10 µM,–,–,–,–,–,–,–,–,0.964,> 5 µM,0.902,> 2 µM,–,–
"J82 (bladder, adherent)",0.967,> 10 µM,0.978,> 10.2 µM,0.972,> 5.12 µM,0.969,> 10.2 µM,0.862,3410 µM,0.949,> 5 µM,–,–,0.897,> 0.064 µM
"KOSC-2 (head and neck, adherent)",0.951,> 10 µM,0.985,> 10.2 µM,0.897,> 5.12 µM,0.985,> 10.2 µM,0.679,812 µM,0.905,> 5 µM,–,–,0.824,0.0405 µM
"KYSE-180 (oesophagus, adherent)",0.988,> 10 µM,0.938,> 10.2 µM,0.833,3.09 µM,0.98,> 10.2 µM,0.382,121 µM,0.98,> 5 µM,–,–,0.531,0.00483 µM
"KYSE-270 (oesophagus, adherent)",0.991,> 10 µM,0.889,8.65 µM,0.959,> 5.12 µM,0.983,> 10.2 µM,0.924,> 4000 µM,0.951,> 5 µM,–,–,0.437,0.00277 µM
"LU-99A (large cell lung carcinoma, adherent)",0.981,> 10 µM,0.966,> 10.2 µM,0.963,> 5.12 µM,0.987,> 10.2 µM,0.633,579 µM,0.878,> 5 µM,–,–,0.595,0.00728 µM
"MCF7 (breast, adherent)",0.884,> 10 µM,0.986,> 10.2 µM,–,–,0.986,> 10.2 µM,0.37,108 µM,0.895,> 5 µM,0.973,> 2 µM,–,–
"ML-1 (thyroid, adherent)",0.96,> 10 µM,0.966,> 10.2 µM,0.902,> 5.12 µM,0.961,> 10.2 µM,0.968,> 4000 µM,0.96,> 5 µM,–,–,0.466,0.00317 µM
"NCI-H196 (small cell lung carcinoma, adherent)",0.988,> 10 µM,0.986,> 10.2 µM,0.941,> 5.12 µM,0.884,> 10.2 µM,0.573,401 µM,0.962,> 5 µM,–,–,0.947,> 0.064 µM
"NCI-H292 (lung adenocarcinoma, adherent)",0.917,> 10 µM,0.649,1.82 µM,0.824,3.95 µM,0.979,> 10.2 µM,0.261,44 µM,0.89,> 5 µM,–,–,0.563,0.00617 µM

Cell Line,AUC (EHT 1864),IC50 (EHT 1864),AUC (WHI-P97),IC50 (WHI-P97),AUC (XL-184),IC50 (XL-184),AUC (QL-XI-92),IC50 (QL-XI-92),AUC (Phenformin),IC50 (Phenformin),AUC (AG-014699),IC50 (AG-014699),AUC (NU-7441),IC50 (NU-7441),AUC (Vinorelbine),IC50 (Vinorelbine)
"NCI-H460 (large cell lung carcinoma, adherent)",0.964,> 10 µM,0.984,> 10.2 µM,–,–,0.989,> 10.2 µM,0.85,2590 µM,0.814,2.39 µM,0.971,> 2 µM,–,–
"NCI-H838 (lung adenocarcinoma, adherent)",0.925,> 10 µM,0.981,> 10.2 µM,0.949,> 5.12 µM,0.985,> 10.2 µM,0.749,1340 µM,–,–,0.865,1.88 µM,–,–
"NCI-H1993 (lung adenocarcinoma, adherent)",0.912,> 10 µM,0.862,> 10.2 µM,–,–,0.983,> 10.2 µM,0.792,2490 µM,0.906,> 5 µM,0.969,> 2 µM,–,–
"NCI-H2066 (small cell lung carcinoma, adherent)",0.949,> 10 µM,–,–,–,–,–,–,–,–,0.98,> 5 µM,0.98,> 2 µM,–,–
"NCI-H2170 (lung squamous cell carcinoma, adherent)",0.98,> 10 µM,0.958,> 10.2 µM,0.985,> 5.12 µM,0.986,> 10.2 µM,0.85,3240 µM,0.972,> 5 µM,–,–,0.667,0.0119 µM
"OAW-28 (ovary, adherent)",0.935,> 10 µM,0.945,> 10.2 µM,0.876,> 5.12 µM,0.983,> 10.2 µM,0.648,721 µM,0.927,> 5 µM,–,–,0.695,0.0165 µM
"PC-3 (prostate, adherent)",0.966,> 10 µM,0.946,> 10.2 µM,–,–,0.932,> 10.2 µM,0.949,> 4000 µM,–,–,0.899,> 2 µM,–,–
"PCI-38 (head and neck, adherent)",0.849,7.6 µM,0.9,> 10.2 µM,0.888,> 5.12 µM,0.984,> 10.2 µM,0.858,3330 µM,0.949,> 5 µM,–,–,0.654,0.0107 µM
"PL18 (pancreas, adherent)",0.957,> 10 µM,0.988,> 10.2 µM,0.961,> 5.12 µM,0.987,> 10.2 µM,0.852,3060 µM,0.914,> 5 µM,–,–,0.75,0.0207 µM
"RD (rhabdomyosarcoma, adherent)",0.953,> 10 µM,0.967,> 10.2 µM,0.949,> 5.12 µM,0.916,> 10.2 µM,0.934,> 4000 µM,0.95,> 5 µM,–,–,0.57,0.00635 µM
"RT-112 (bladder, adherent)",0.98,> 10 µM,0.985,> 10.2 µM,0.89,> 5.12 µM,0.983,> 10.2 µM,0.929,> 4000 µM,0.962,> 5 µM,–,–,0.478,0.00346 µM
"SN12C (kidney, adherent)",0.927,> 10 µM,0.984,> 10.2 µM,0.981,> 5.12 µM,0.986,> 10.2 µM,0.967,> 4000 µM,0.907,> 5 µM,–,–,0.761,0.0254 µM
"SW156 (kidney, adherent)",0.852,9.12 µM,0.959,> 10.2 µM,0.941,> 5.12 µM,0.959,> 10.2 µM,0.894,> 4000 µM,0.943,> 5 µM,–,–,0.931,> 0.064 µM
"SW837 (large intestine, adherent)",0.971,> 10 µM,0.962,> 10.2 µM,0.936,> 5.12 µM,0.972,> 10.2 µM,0.592,484 µM,0.977,> 5 µM,–,–,0.951,> 0.064 µM
"SW1088 (glioma, adherent)",0.965,> 10 µM,0.959,> 10.2 µM,0.905,> 5.12 µM,0.966,> 10.2 µM,0.841,> 4000 µM,0.98,> 5 µM,–,–,0.797,0.0411 µM
"SW1463 (large intestine, adherent)",0.86,> 10 µM,0.973,> 10.2 µM,0.978,> 5.12 µM,0.978,> 10.2 µM,0.603,588 µM,0.978,> 5 µM,–,–,0.9,> 0.064 µM
"T-24 (bladder, adherent)",0.904,> 10 µM,0.957,> 10.2 µM,0.962,> 5.12 µM,0.967,> 10.2 µM,0.985,> 4000 µM,0.962,> 5 µM,–,–,0.926,> 0.064 µM
